Some entries of the source have several records that differ or are many. This list holds those alone. There may be further records. Results that share an entry repeat one measurement (runs, samples, wells, individuals or studies). Signs of the kind (2×) say how often a value occurs here. Where only a bound is given, the exact number is not on record here.

The test system of the assay is IGROV1 complex spheroids (HUVEC, MSC), viability % test/control. Nature of the assay: Anticancer human tumor IGROV1 cell line growth inhibition [GQUAD].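 As to all read-outs here: spheroids exposed to compounds for 7 days before readout.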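 As to viability, T/C: 100% = DMSO vehicle control viability.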 To be noted: for viability, T/C: stronger effect = lower value. The source says: DNA G-quadruplex Stabilizer Agents in Combinations in Complex Spheroids
A high-throughput screen of multi-cell type tumor spheroids was designed to identify active combinations of DNA G-quadruplex stabilizer agents and targeted small molecules. Complex spheroids include a stromal component modeled by human endothelial cells (HUVEC) and fibroblasts modeled by human mesenchymal stem cells (MSCs). The concentration ranges selected for each drug and investigational agent were based upon clinically achievable concentrations if the clinical Cmax of the agent was known.
Compounds. The drugs and investigational agents: pidnarulex (CX-5461; NSC782164), APTO-253 (NSC789042), BRACO-19 (NSC847499), peposertib (NSC802822), ceralasertib (NSC780249), elimusertib (NSC800525), camonsertib (NSC841442), AZD-1390 (NSC803789), olaparib (NSC753686), talazoparib (NSC767125), ART-558 (NSC835418), sotorasib (NSC818433), MRTX-1133 (NSC836407), SN-38 (NSC673596), topotecan (NSC609699), etoposide (NSC141540), doxorubicin (NSC123127), gemcitabine (NSC613327), 5-fluorouracil (NSC19893), paclitaxel (NSC125973), vemurafenib (NSC761431), panobinostat (NSC761190), R-306465 (JNJ-16241199; NSC773264), adavosertib (NSC754352), TP-3654 (NSC805149), carboplatin (NSC241240), KSQ-4279 (NSC840948), and staurosporine (NSC755774) were obtained from the National Cancer Institute (NCI) Developmental Therapeutics Program Chemical Repository (34). The FDA-approved anticancer drug set is available from the NCI Developmental Therapeutics Program. […] The stock solutions were prepared in dimethyl sulfoxide (DMSO, Sigma-Aldrich, St. Louis, MO, cat. D2650) at 800-fold the tested concentration and stored at -70 degrees C prior to their use. All drugs and investigational agents were tested over a range starting from a high concentration at or near the clinical Cmax and decreasing in half-log increments. If the clinical Cmax for an agent had not been determined, the highest concentration tested was 10 microM.
2.3 Cell Culture. All cells were maintained in an incubator at 37 degrees C and 5% CO2 with 95% humidity. […]

Broadly, the viability, T/C is the ratio of treated to control. Regarding `Cc1[nH]c2ccc(F)cc2c1-c1nc2c3cccnc3c3ncccc3c2[nH]1`, the viability, T/C is 87.6, 109, 86.7 (2×), 94.6, 94.5, 104 (2×), 102, 99.9, 105, 78.3% (compound alone 0.0316 µM) and 86.9, 97.3, 87.8, 92, 105, 96, 80.4, 93.5, 79.2, 87.6, 94.4, 76.3% (compound alone 0.316 µM).

As a reminder, the IC50 is the concentration that inhibits the measured activity by half. As for `CN(C)c1ccc(Nc2c3ccc(NC(=O)CCN4CCCC4)cc3nc3cc(NC(=O)CCN4CCCC4)ccc23)cc1`, the half-maximal inhibitory concentration (IC50) (compound alone, run of 03/26/2024) is reported as > 10 µM, 9.8 µM, 9.19 µM, 9.06 µM, 8.53 µM.

The values are drawn from PubChem BioAssay AID2060486 (Molecular Pharmacology Branch, DTP, NCI, 2025).
